# Results taken from PubChem BioAssay AID624296 (National Center for Advancing Translational Sciences (NCATS), 2012).
# About 9,900 (2.8%) of roughly 350,000 compounds were called active. Inconclusive results, whose numbers are uncertain, are shown with a selection of clear calls. Calls come from the whole dose curve; as a rule, active = well fitted activation curve with a large enough effect; inconclusive = small, poorly fitted or top-dose-only effect; inactive = no such curve, though single readings can be large or run the other way. Potencies of inconclusive entries are left out as doubtful fits.
# Experiment: A quantitative high throughput screen for small molecules that induce DNA re-replication in MCF 10a normal breast cells. For activity, positive = re-replication: % of control where 0% means no effect. Note: nearly all actives have a fitted effect of over 50% in size.
# Settings: MCF 10A DNA re-replication, Hoechst nuclear intensity, 48 h; activity, positive = re-replication: at 46.1 µM (top of the series)
# Potency is the fitted concentration of half-maximal effect; tags give direction and shape of the fitted curve.
SMILES,Potency,"activity, positive = re-replication"
N#CC1CC(c2ccccc2)=NN1c1ccccc1[N+](=O)[O-] (centres undefined),"inconclusive [activator, partial curve, poor fit]",–
O=S(=O)(/N=C(/Nc1ccc(Cl)c(S(=O)(=O)Nc2ccccc2Cl)c1)c1ccc(F)cc1)c1ccccc1,"inconclusive [activator, single point]",–
O=C(Nc1nccs1)c1ccc2ccccc2c1,"inconclusive [activator, single point]",–
Cc1ccc(S(=O)(=O)N2CCC(C(=O)OCC(=O)NCc3cccc(Cl)c3)CC2)cc1C,inactive,–
CCC(CO)[n+]1c(C)cc(/C=C2\Sc3ccccc3N2Cc2ccccc2)cc1C (centres undefined),–,inconclusive: 195% [activator]
Cn1cc(CCC(=O)NCc2cccc(Cl)c2)c2ccccc21,"inconclusive [activator, partial curve, poor fit]",–
COc1ccc(C(=O)c2oc3ccc(OC)cc3c2NC(C)=O)cc1,"inconclusive [activator, single point]",–
CCOC(=O)c1c(C)[nH]c(C(=O)OCC(=O)NCCc2ccc(OCC)c(OCC)c2)c1C,"inconclusive [activator, partial curve, poor fit]",–
O=C(CNC(=O)c1ccc(Br)o1)NCc1ccc(F)cc1,"inconclusive [activator, partial curve, poor fit]",–
CCCCn1c(CN2CCN(c3ccc(F)cc3)CC2)nc2c1c(=O)n(C)c(=O)n2C,inactive,–
CCN1CCN(C(=O)CCCCCn2c(=O)[nH]c3cc(C(=O)OC)ccc3c2=O)CC1,inactive,–
CC(NC(=O)COC(=O)C12CC3CC(CC(Br)(C3)C1)C2)c1ccccc1 (centres undefined),"inconclusive [activator, partial curve, poor fit]",–
COc1ccc(S(=O)(=O)N2CCCCC2)cc1NC(=O)Cc1ccsc1,"inconclusive [activator, single point]",–
COc1ccc(S(=O)(=O)N2CCOC2CNC(=O)C(=O)NCCc2ccccc2OC)cc1C (centres undefined),inactive,–
COc1ccc(CNS(=O)(=O)c2cc(-c3cc(C)no3)ccc2OC)cc1OC,inactive,–
Cc1cc(C)c(N2CCN(S(=O)(=O)N3CCCCCC3)CC2)c(C)c1,"inconclusive [activator, single point]",–
CCCCCOC(=O)CSc1nnc(-c2cc(OC)c(OC)c(OC)c2)o1,"inconclusive [activator, partial curve, poor fit]",–
Cc1ccc(S(=O)(=O)Nc2ccc(-c3cn4ccc(C)cc4n3)cc2)cc1,active: 20.6 µM,–
CC(=Nc1ccc(Br)cc1)c1sc2ccccc2c1O,inactive,–
COc1cc(CN(C)Cc2cccc3ccccc23)cc([N+](=O)[O-])c1O,inactive,–
CN1C(=O)/C(=C/c2cccc(Cl)c2)Sc2ccc(C(=O)N3CCOCC3)cc21,active: 20.6 µM,–
O=S(=O)(c1cccc(Br)c1)N1CCN(c2ccnc3cc(Cl)ccc23)CC1,"inconclusive [activator, partial curve, poor fit]",–
Cc1ccc2[nH]c(=O)c(CN(c3cccc(C)c3C)S(=O)(=O)c3ccccc3)cc2c1,"inconclusive [activator, full curve]",–

SMILES,Potency,"activity, positive = re-replication"
CN1CCN(CC(=O)Nc2sc3c(c2C(=O)Nc2ccccc2)CCCC3)CC1,inactive,–
O=C(NC(=S)NNC(=O)c1ccco1)c1ccc(F)cc1,inactive,–
Cc1ccc(NC(=S)NNC(=O)c2c(Cl)c(C)nn2C)cc1,"inconclusive [activator, partial curve, poor fit]",–
CCOC(=O)c1nnn(-c2ccc([N+](=O)[O-])cc2[N+](=O)[O-])c1C,"inconclusive [activator, single point]",–
N#Cc1ccsc1NC(=O)CN1CCN(S(=O)(=O)c2ccccc2C(F)(F)F)CC1,"inconclusive [activator, single point]",–
CC1Cc2ccccc2N1c1ncnc2nc[nH]c12 (centres undefined),inactive,–
C=CCn1c(=O)c2ccccc2n2c(SCC(=O)NC(C)C)nnc12,inactive,–
Cc1ccc(Cn2c(C)c3cnn(CC(=O)NCCN4CCOCC4)c(=O)c3c2C)cc1,inactive,–
CCONc1ncnc2nonc12,inactive,–
O=C(N/N=C/c1ccncc1)c1ccccc1OCc1ccc(Br)cc1,"inconclusive [activator, partial curve, poor fit]",–
Cc1cc(Cn2nc(C(=O)NCc3cccc(Br)c3)cc2-c2ccccc2)on1,"inconclusive [activator, partial curve, poor fit]",–
CNc1ccccc1C(C)(C)c1cc(-c2ccc(F)cc2)no1,inactive,–
Cc1ccc(SCC(=O)c2cc(C)c(O)c(C)c2)cc1,"inconclusive [activator, partial curve, poor fit]",–
FC(F)(F)c1cccnc1N1CCN(c2ncnc3nc[nH]c23)CC1,"inconclusive [activator, partial curve, poor fit]",–
NS(=O)(=O)c1cccc(NC(=O)CCCC2CCCCC2)c1,"inconclusive [activator, partial curve, poor fit]",–
O=C(COc1coc(CN2CCN(c3ccccc3)CC2)cc1=O)Nc1cccc(F)c1,"inconclusive [activator, partial curve, poor fit]",–
CC(NC(=O)COc1ccccc1-c1ccccc1)c1ccccc1 (centres undefined),active: 4.61 µM,–
Cc1cccc(C2=NN(c3ccccc3)[C@H](CO)[C@H]2c2ccc(F)cc2)c1,"inconclusive [activator, partial curve, poor fit]",–
Cc1ccccc1/C=C1\SC(=S)N(/N=C/c2cc([N+](=O)[O-])ccc2O)C1=O,"inconclusive [activator, single point]",–
COc1ccc(OC)c(Nc2nc(-c3ccccc3O)nc3ccccc23)c1,"inconclusive [activator, partial curve, poor fit]",–
C=CCn1c(SCc2nc3ccccc3[nH]2)nnc1-c1ccc(OC)cc1,inactive,–
Cc1ccc(-c2nc(NC(=O)c3nn(C)cc3[N+](=O)[O-])sc2C)cc1C,"inconclusive [activator, full curve]",–
CC(C)(C)OC(=O)C[C@H]1C/C=C\C[C@H](CC(=O)N(CCO)Cc2ccccc2)C(=O)NCCOC1=O,inactive,–

SMILES,Potency,"activity, positive = re-replication"
COc1cc2cc(C(=O)N3CCOCC3)cc(-c3ccc(C)cc3)c2cc1OC,"inconclusive [activator, partial curve, poor fit]",–
CCOC(=O)C1=C(C)Nc2ncnn2C1c1cc(Br)ccc1F (centres undefined),"inconclusive [activator, partial curve, poor fit]",–
O=C(O)c1cccc2[nH]c(C(F)(F)F)nc12,inactive,–
CC(C)C(=O)c1cc2c(cc1NC(=O)c1ccccc1)OCCO2,"inconclusive [activator, single point]",–
CCCCCCCCn1c2c(c(=N)c3c1CCC3)CCCC2,"inconclusive [activator, single point]",–
CCOC(=O)C1=C(COC(=O)C2(C)CC2(Cl)Cl)NC(=O)NC1c1ccccc1 (centres undefined),inactive,–
COc1ccc(C)cc1-n1c(C)cc(C=O)c1C,inactive,–
O=C(CSc1ccc2ccccc2c1)NCc1cccs1,"inconclusive [activator, partial curve, poor fit]",–
CC(C)(C)C1CCC2(CC1)Nc1cccc3cccc(c13)N2,"inconclusive [activator, single point]",–
O=C(Nc1ccc(Cl)cc1)c1ccc(CN2CCc3ccccc3C2)cc1,"inconclusive [activator, single point]",–
Clc1ccc2c(c1)C1OCCC1C(c1ccco1)N2 (centres undefined),"inconclusive [activator, single point]",–
COc1ccc(-c2csc(NC(=S)NC(=O)c3cccs3)n2)cc1OC,"inconclusive [activator, partial curve, poor fit]",–
Cc1c(C(=O)OCC(O)=C(C#N)c2nc3ccccc3[nH]2)oc2ccc(Br)cc12,"inconclusive [activator, full curve, poor fit]",–
O=[N+]([O-])c1ccccc1N/N=C/c1ccccc1,inactive,–
CN(C(=O)c1ccccc1F)C(c1ccccc1)c1ccccc1,"inconclusive [activator, single point]",–
Cn1c(=O)c(C(=O)COC(=O)c2cc(-c3ccco3)nc3ccccc23)c(N)n(Cc2ccccc2)c1=O,active: 23.1 µM,–
COc1ccc(C[C@](C)(N)C(=O)O)cc1OC,"inconclusive [activator, single point]",–
CCN(CC)c1ccc(/C=N/NC(=S)NCc2ccccc2)c(O)c1,active: 16.4 µM,–
O=c1oc2ccccc2cc1-c1cn2ccccc2n1,"inconclusive [activator, single point]",–
COc1ccccc1N1CCN(C(=O)c2c(-c3ccccc3)noc2C)CC1,active: 11.2 µM,–
O=S(=O)(/C=C/c1ccccc1)N1CCN(c2nc(-c3cccnc3)nc3ccccc23)CC1,"inconclusive [activator, partial curve]",–
CC(C)C(=O)NC(c1ccco1)c1ccc2cccnc2c1O (centres undefined),"inconclusive [activator, single point]",–
CCC1(c2ccc(F)cc2)NC(=O)N(CC(=O)Nc2ccc3c(c2)OCCO3)C1=O (centres undefined),inactive,–
